# According to publication PMC4242493:
# This is one part of the list. The list includes weakly bound sequences.
# Molecular target: MaxL homodimer (UniProt P61244)
# Experiment: universal protein-binding microarray (PBM)
# Settings: PBS-based mixture, 10 nM His-tagged protein dimer, 2% milk, 200 ng/uL BSA, 50 ng/uL salmon testes DNA, 0.02% TX-100; detection with Alexa 488 anti-His …; high values mean tight binding; most listed sequences are background and not binding sites; double strand, one strand shown
# UniProt P61244, sequence (P61244 whole entry): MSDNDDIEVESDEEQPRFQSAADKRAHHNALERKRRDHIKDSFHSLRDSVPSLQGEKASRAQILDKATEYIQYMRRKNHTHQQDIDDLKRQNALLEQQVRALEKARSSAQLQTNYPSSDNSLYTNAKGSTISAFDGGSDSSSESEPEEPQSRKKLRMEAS
row,Sequence,binding signal (normalized occupancy)
1,CTTTCGCC,0.0709
2,TGACTAAA,0.0728
3,AGACGCAG,0.069
4,TCGTAAAA,0.0794
5,CCATGTCA,0.0838
6,CATTCCGC,0.077
7,ATTAGTCA,0.0775
8,ATGACGAG,0.0829
9,GAGGTGAC,0.0727
10,CGGGTCGC,0.0743
11,GGAGTCAC,0.0757
12,ATACAATC,0.0757
13,AGCTCAGC,0.0688
14,CAAGAATC,0.076
15,GATCCATC,0.0795
16,GCCACAAC,0.077
17,CAGTTGCC,0.0701
18,AATTGTAT,0.0798
19,CAAATTGG,0.0737
20,CAAAACTC,0.0702
21,CATGATCG,0.0869
22,ATGTTGGG,0.0795
23,CCCGCATC,0.0765
24,ACACATTA,0.0926
25,AAACTACA,0.0812

row,Sequence,binding signal (normalized occupancy)
1,CGAGACAA,0.0709
2,TACTCAAA,0.0761
3,AGTTTGTC,0.0692
4,GGCTGGCA,0.0683
5,GCCGTAAA,0.0705
6,CATATCCC,0.0889
7,CCAGAACC,0.0732
8,CATTCAGA,0.0779
9,ATAACCAT,0.0835
10,CCGGCGTC,0.0681
11,AACCTGCG,0.0708
12,CTCGCCGC,0.0695
13,GCCCCAGC,0.0685
14,ACTAGCTA,0.0697
15,CATCCGGG,0.0755
16,AGACTGCT,0.0699
17,GCGCTTCC,0.0759
18,GCCAAGAA,0.0725
19,TACAACCA,0.0807
20,CGTCGGCA,0.0746
21,AATGTGCC,0.0816
22,ACTGCTTG,0.0729
23,GCGAAAAA,0.0719
24,TCAGAAGA,0.0734
25,ACTGGTTG,0.0719

row,Sequence,binding signal (normalized occupancy)
1,ACATATGT,0.0906
2,CATTTCCG,0.0753
3,GCCGAGGA,0.0719
4,ACGCCGGC,0.0683
5,GGTGCTTA,0.0737
6,ACAAGTAG,0.0776
7,ATAGGCGG,0.0747
8,AACGTAAA,0.0808
9,ATCTGAAC,0.0828
10,ACGTAAAG,0.078
11,GGGCTTGA,0.0718
12,GGACTTTA,0.0684
13,AACGTAAG,0.07
14,GTGTCCCA,0.0768
15,ACCATCTA,0.0832
16,TCAGAACA,0.0736
17,ACAAGTAC,0.0777
18,ATAAGCTG,0.0801
19,ACAATCAC,0.0815
20,CCAACTCA,0.0733
21,GCCAGGCA,0.0698
22,GATACATA,0.0832
23,AACAGGCC,0.0668
24,CGGTAATA,0.0778
25,GCAGAGTA,0.0701

row,Sequence,binding signal (normalized occupancy)
1,AGTCGATA,0.0744
2,GCTAGAGA,0.0773
3,GGAGTAGA,0.0773
4,AGATCTAG,0.0767
5,TATAAAGA,0.0757
6,AAGCTGTC,0.0726
7,CTCATCCA,0.0825
8,CTGTACGA,0.0731
9,CCTCTTAC,0.0756
10,AATATTAT,0.0854
11,AGGTAAGA,0.0704
12,AGCGATCG,0.0723
13,CTCTGTAA,0.0819
14,ACCAGCGT,0.0751
15,AGCCTGGC,0.0709
16,AAATGAAA,0.0762
17,CAGCTCGG,0.0628
18,GCCCGCAA,0.0684
19,ACCTGTCC,0.0789
20,TCTTGGAA,0.0712
21,AGGCGAAA,0.069
22,CAAAACGC,0.0707
23,GCCTATAA,0.0799
24,ACTCCACC,0.0771
25,CATTTGCC,0.0734

row,Sequence,binding signal (normalized occupancy)
1,AACTGCAC,0.0731
2,GTCCATAA,0.0795
3,ACTTAGCT,0.0686
4,CGATCACA,0.0846
5,ACAAACAC,0.0794
6,AACGGCAA,0.0694
7,ACCCTATG,0.0778
8,CACTCATA,0.0823
9,CGCGGACC,0.0689
10,CGAATACG,0.0739
11,CTGCTTTA,0.0757
12,CCAGGTAC,0.0724
13,CGTCAGTC,0.069
14,GCATTTAA,0.0769
15,GTTGACTA,0.0722
16,ATCCTGGG,0.079
17,CTCATTCC,0.0776
18,TCTTAGAA,0.0718
19,AAATTAGT,0.0734
20,CAATTTCC,0.0744
21,CGCTTGTC,0.0746
22,AGTATGGG,0.0836
23,GTTTCATA,0.0788
24,TCCAAGAA,0.0684
25,AATTCATA,0.0762

row,Sequence,binding signal (normalized occupancy)
1,ATCGGTTG,0.075
2,CGATGGCA,0.0733
3,CAATTAGA,0.0751
4,GCTTGTGA,0.074
5,CGCTGTAC,0.0766
6,ACTAATGG,0.0751
7,GCGATCTA,0.075
8,CACTTACG,0.0712
9,ATCGTTCA,0.0794
10,TCGCAAAA,0.0729
11,ACGTCGCA,0.0756
12,ACCCTTAT,0.0822
13,GGAGTCTA,0.0742
14,ACTTAATC,0.0742
15,CTCGCGAC,0.077
16,ACGATCCA,0.0807
17,AACCAAGG,0.0712
18,GACGTGGC,0.0846
19,CGGGAACA,0.0761
20,CGTGACCA,0.0992
21,TAGCCACA,0.0813
22,CACAAGTG,0.0771
23,GGCCAATA,0.0771
24,GGGCCACA,0.0741
25,CGCTCGGC,0.0706

row,Sequence,binding signal (normalized occupancy)
1,CTGAGCTA,0.0702
2,CACTACAC,0.0835
3,CCAAGAAG,0.0679
4,ATACCTCA,0.0778
5,ACACCACA,0.083
6,AGAATCAA,0.0736
7,GTATTTAA,0.0808
8,CCCGTGTA,0.0861
9,AAGCGGCT,0.069
10,CCAGGAGA,0.0744
11,ATCACCCG,0.0787
12,ACTGTAAG,0.0733
13,GACCTGCA,0.071
14,AATTACAG,0.0778
15,CAGCACAC,0.0857
16,GGTGAACC,0.0721
17,CGCGTACG,0.0773
18,CACCCGTC,0.0736
19,CCCCTTGC,0.0765
20,CTTCTGCA,0.0742
21,CGCCAAAA,0.0642
22,AACGTGAA,0.0849
23,AAGTCCTC,0.07
24,AAAGGGTA,0.0823
25,CCGAGCCG,0.0668

row,Sequence,binding signal (normalized occupancy)
1,AGTGACGA,0.0757
2,GGTTCGTA,0.0711
3,ATATTTCC,0.0852
4,GACGTCCC,0.0673
5,ATCTCCAA,0.0742
6,CGGAGGAG,0.0725
7,GTAAGGTA,0.0763
8,ACGTGCCG,0.0929
9,GTCCTCAC,0.0765
10,AACAGGTA,0.079
11,GATGGTGC,0.0806
12,AAAAAAGT,0.0748
13,CTATCAGC,0.0763
14,GGAGTTGA,0.0728
15,AGTGGAAT,0.0749
16,GCAGAAGA,0.0723
17,GCCACCTA,0.0707
18,CGATTAGA,0.0757
19,AGGACTCG,0.0681
20,AAGTGTCT,0.073
21,CGCGAGCC,0.0667
22,TCAGACGA,0.0739
23,AGAAACGA,0.0802
24,ACGTCCTC,0.0742
25,AGTACATC,0.0798

row,Sequence,binding signal (normalized occupancy)
1,GCACTCAC,0.0818
2,ATAGGCCA,0.0738
3,CCACATAG,0.0803
4,GCTGCCTA,0.072
5,GCCGCGCA,0.0695
6,CATTTCAC,0.0771
7,ATCAATGA,0.0835
8,ACTTAGTA,0.0721
9,ATCCAACC,0.0754
10,CGAGTCTA,0.0708
11,GACTAAGC,0.066
12,AGTGATCC,0.0717
13,CGATTGCA,0.0745
14,CCAACCAC,0.0828
15,CCACTGTA,0.0744
16,CATATGAC,0.0954
17,ACCCCATG,0.102
18,ATAGCGTA,0.0819
19,GACCCAGC,0.0741
20,GCGCTTGA,0.0669
21,GCGGCCTA,0.0689
22,ACTACACT,0.0745
23,CAACCCTA,0.0742
24,GGGAAAAC,0.073
25,CCCGGACC,0.0766

row,Sequence,binding signal (normalized occupancy)
1,GGGACCGA,0.067
2,AATTTGGG,0.0765
3,GCCGGCAC,0.0688
4,ACTCGGCA,0.0722
5,CCACACCG,0.0853
6,AGACTCCT,0.072
7,AATTCATG,0.0813
8,CGGCTCTA,0.0718
9,ACTGACAT,0.0822
10,CAGTGTGC,0.0797
11,AATCGCTA,0.074
12,AAAATGTA,0.0835
13,ACGAATCG,0.0746
14,AGGGATAA,0.0801
15,AAGCTTGT,0.0717
16,CTCTTCAA,0.0719
17,CATGCTAA,0.091
18,ACACAAAC,0.0831
19,GTTACAGA,0.0818
20,AACATCGA,0.0754
21,AAGTCTCC,0.0764
22,ATATTAAT,0.0838
23,GAAGCATC,0.076
24,TGATCCAA,0.0774
25,CACAAGAC,0.0757

row,Sequence,binding signal (normalized occupancy)
1,CGTACGAA,0.0668
2,ATATGAAT,0.088
3,TACAACTA,0.0731
4,AAGGTTTG,0.072
5,CATTCAAA,0.077
6,ACGTGTTA,0.109
7,GAAGGGGA,0.0751
8,CCCGGGTA,0.0702
9,ACTTTAAT,0.0771
10,CCGAAGGA,0.0653
11,CTCACAGC,0.0698
12,CAAGGAGC,0.0737
13,TAGTATGA,0.0809
14,GATCTTCA,0.0714
15,CTCCGGAA,0.0683
16,CTGCAGGC,0.0687
17,TGACTCCA,0.0765
18,AATGCGCC,0.0731
19,GCGGACTA,0.0716
20,CACAGCTC,0.0732
21,CGATACCG,0.0694
22,GGTAAGGA,0.0701
23,AGCTGATA,0.0762
24,CGACATGA,0.0858
25,TAAGCTGA,0.0738

row,Sequence,binding signal (normalized occupancy)
1,AAGTGGAA,0.072
2,ACCAGCTG,0.0697
3,ATGATCGG,0.0783
4,GGTATCTA,0.0852
5,GAGGAAGA,0.075
6,CAGTCCAA,0.0738
7,ATCCACGC,0.109
8,GGCGCCGA,0.07
9,CACAGAAC,0.0725
10,CCTATAAC,0.0887
11,GCGCACAC,0.0833
12,ATAGCAAT,0.0791
13,AGACGTCG,0.0745
14,AATAGGGA,0.0739
15,ATATCCTA,0.0806
16,AGCTCAGG,0.0712
17,GTTATCGA,0.074
18,AGATAGAC,0.0744
19,CATTATGG,0.0813
20,ACGCGCGC,0.0821
21,ACCCATGA,0.0882
22,CTCCTCCA,0.0779
23,GGTGAGAA,0.071
24,ACCCTAAA,0.0716
25,ATAATTTG,0.0804

row,Sequence,binding signal (normalized occupancy)
1,CTCTGGGC,0.0676
2,CACCCTGA,0.0786
3,ACTGTGTC,0.0697
4,TACTAATA,0.0814
5,AAGCGGAA,0.0749
6,CCCGTAAG,0.0811
7,CTAGGTGA,0.0754
8,AATGGACG,0.0788
9,GGATCGCC,0.0778
10,CCCAACTA,0.0744
11,AGAGAGTG,0.0746
12,CACAGGGG,0.083
13,ATTGACGC,0.0771
14,AGGTGACT,0.0768
15,GCCGTTCC,0.0719
16,ATTGCCCC,0.0797
17,CAGTTGTC,0.074
18,ATGCAGGG,0.0792
19,ACCTTTCA,0.0774
20,CTCTACAA,0.0776
21,AATCATCT,0.0788
22,CTGTTGAA,0.0758
23,ACGAGACC,0.0848
24,ACATACTC,0.073
25,AGGCCGTC,0.0709

row,Sequence,binding signal (normalized occupancy)
1,AGGACACA,0.0745
2,AGCCAGAT,0.0712
3,GCTTACCA,0.0723
4,AGAGCAAC,0.066
5,GTGAACGA,0.0773
6,CGTTTGTA,0.0749
7,TGGGTAAA,0.0757
8,AAGTGCTA,0.0755
9,CAAGAAAG,0.0721
10,CCTAGGGA,0.0699
11,AGAGCAAG,0.072
12,CACTGGCG,0.0717
13,CCCCTGAC,0.078
14,GAGAGTCC,0.0698
15,CCGCTCGA,0.0694
16,ATTCGGCC,0.0712
17,ACCATGGG,0.0927
18,GACACAGA,0.0724
19,TGTGGCAA,0.0751
